# Reference: PubChem BioAssay AID1240 (Sanford-Burnham Center for Chemical Genomics, 2008)
# About 800 (1.6%) of roughly 50,000 compounds showed an effect of 50% or more. This is one part of the list.
# Target: Bcl-2-like protein 10 (Homo sapiens) (UniProt Q9HD36)
# Assay: Phenotype converters, Bcl-B/TR3 peptide binding displacement, primary biochemical FP (AID 1240);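 also: 0% = Bcl-B with tracer peptide and DMSO and 100% = tracer peptide lacking Bcl-B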
# Conditions: GST-Bcl-B / FITC-TR3 peptide fluorescence polarization; stronger effect = higher value; compound at 3.75 mg/L
# Chain of UniProt Q9HD36 (Q9HD36 whole entry, looked up): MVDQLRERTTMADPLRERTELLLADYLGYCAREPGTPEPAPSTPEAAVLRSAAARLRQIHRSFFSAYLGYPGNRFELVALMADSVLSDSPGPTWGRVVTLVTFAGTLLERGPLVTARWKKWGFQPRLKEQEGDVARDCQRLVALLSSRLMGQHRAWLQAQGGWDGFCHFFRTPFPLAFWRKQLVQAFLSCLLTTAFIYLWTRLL
row,Structure (SMILES),displacement
1,C=CCn1c(O)c(/C=C2\C(C)=Nc3ccccc32)c(=O)[nH]c1=S,5.4%
2,O=C(NCCNc1ccc(Cl)cc1[N+](=O)[O-])c1ccc(F)cc1,-14.4%
3,O=C(CCN1C(=O)/C(=C\c2cccs2)SC1=S)N1CCCC1,-0.2%
4,COc1ccc2ccccc2c1/C=N/N1C(=O)C2C(C1=O)C1C=CC2C12CC2 (configuration not stated),6.6%
5,O=S(=O)(Nc1cccc(I)c1)c1ccc(Cl)cc1,-9.7%
6,COc1ccc(N(CC(=O)Nc2cc(OC)ccc2OC)S(C)(=O)=O)cc1,1.3%
7,NC(=O)CNC1CC(=O)N(c2ccc(Br)cc2)C1=O (configuration not stated),-4.1%
8,COc1ccc(NC2=C(Cl)C(=O)N(c3ccc(Br)cc3)C2=O)c(OC)c1,-16.3%
9,N#Cc1c(N)nc2c(c1-c1ccc3c(c1)OCO3)CCCCC2,-2.3%
10,Cn1cnnc1Sc1cc(N2CCOCC2)ccc1[N+](=O)[O-],7.8%
11,N#CCCNc1cc2ccccc2cc1C(=O)O,5.4%
12,COc1ccc([N+](=O)[O-])cc1NS(=O)(=O)c1ccc(NC(C)=O)cc1,5.2%
13,CCOc1ccccc1C(=O)Nc1nnc(CC)s1,7.5%
14,CCOc1ccccc1NC(=O)CN(c1c(C)cccc1C)S(C)(=O)=O,11.1%
15,Cc1sc(Nc2cccc(O)c2)nc1-c1ccccc1,7%
16,COc1ccc(C(=O)Nc2nc3ccc(C)cc3s2)cc1OC,-11.1%
17,COc1ccc(CN2CCN(C(=O)c3ccc(F)cc3)CC2)c(OC)c1OC,1.3%
18,O=C(CSc1nc2sc3c(c2c(=O)[nH]1)CCc1ccccc1-3)c1ccc(Cl)cc1,-4%
19,O=C1c2ccc3c4c(ccc(c24)C(=O)N1Nc1ccccc1)CC3,-6.8%
20,Cc1ccc(C(=O)Nc2ccc(I)cc2Cl)cc1[N+](=O)[O-],8.5%
21,O=S(=O)(c1ccc2ccccc2c1)N1CCN(C/C=C/c2ccccc2)CC1,-9.5%
22,Cc1cccc(C2C(=O)c3ccccc3C2=O)c1C,-8.6%
23,CC(=O)C(C(=O)c1ccccc1)C1(O)C(=O)Nc2ccccc21 (configuration not stated),8.1%

row,Structure (SMILES),displacement
1,O=C(N/N=C\c1ccccc1Br)c1cnccn1,-2.2%
2,CCC1=NN2C(=N)/C(=C/c3ccc(OC(=O)c4ccc(F)cc4)c(OC)c3)C(=O)N=C2S1,-15.4%
3,CCc1c(C)sc(NC(=O)C2CCCCC2)c1C(=O)OC(C)C,-9.7%
4,O=C(CCNc1ccccc1)c1ccc([N+](=O)[O-])cc1,13.8%
5,COc1ccc(-c2[nH]ncc2C=O)cc1OC,-6.7%
6,COC(=O)c1ccc(NC(=O)c2cccc(Cl)c2Cl)cc1,-6.6%
7,O=C(Nc1cccc([N+](=O)[O-])c1)C1C(c2ccccc2)C1(Cl)Cl (configuration not stated),3.7%
8,COc1cc(/C=C2/SC(=S)N(C)C2=O)cc(Cl)c1OCc1ccccc1Cl,14.9%
9,CCCCNC(=O)NC(C(=O)OC)C12CC3CC(CC(C3)C1)C2 (configuration not stated),14.2%
10,Cc1ccc(/C=C(/C#N)C(=O)Nc2cccc(Br)c2)cc1[N+](=O)[O-],-15.1%
11,COc1cc2c(cc1OC)C(c1ccc([N+](=O)[O-])cc1)=NC(C)(C)C2,8.9%
12,Cc1sc2nc(-c3ccc([N+](=O)[O-])cc3)[nH]c(=O)c2c1C,-12.6%
13,CCOc1cccc(C(=O)Nc2cc(-c3nc4ccccc4[nH]3)ccc2C)c1,3.9%
14,C=CCc1ccc(OCC(O)CN2C(C)CCCC2C)c(OC)c1 (configuration not stated),-8.7%
15,COc1cccc(NC(=O)C2CC2(c2cccc(OC)c2)c2cccc(OC)c2)c1 (configuration not stated),-8.3%
16,COCCOC(=O)C1=C(C)NC(=S)NC1c1ccc(Cl)cc1 (configuration not stated),3.2%
17,NS(=O)(=O)c1cccc(NC(=O)c2sc3ccccc3c2Cl)c1,-0.1%
18,COC(=O)CNC(=O)CN(c1ccc(OC)cc1OC)S(=O)(=O)c1ccccc1,-5.1%
19,COc1cc(/C=N/Nc2nc(-c3ccccc3)c(-c3ccccc3)s2)ccc1O,-8.1%
20,C=CCc1cc(/C=C2\C(=O)NC(=O)N(c3cc(C)cc(C)c3)C2=O)cc(OCC)c1OCC(=O)OC,-5.3%
21,CC(C)C(=O)Nc1ccc(-c2nc3ncccc3o2)cc1,-3.1%
22,COc1ccccc1N1CCN(C(=O)COc2cccc3ccccc23)CC1,-3.8%
23,O=C(N/N=C\c1ccccn1)c1n[nH]c2c1CCC2,-19.7%

row,Structure (SMILES),displacement
1,CC(C)CC(=O)N1CCN(Cc2cccc(Oc3ccccc3)c2)CC1,-0.4%
2,COc1ccccc1N1CCN(C(=O)Cn2cnc3c2c(=O)n(C)c(=O)n3C)CC1,6.8%
3,NC(=O)CCC(NC(=O)c1ccc(-c2ccccc2)cc1)C(=O)O (configuration not stated),5%
4,COC(=O)c1cc(C(=O)NCC2CCCO2)cc([N+](=O)[O-])c1 (configuration not stated),-23.7%
5,Cc1cccc(-c2noc(-c3ccc(Br)cc3)n2)c1,-1.7%
6,Cc1cc(OCC(=O)Nc2ccccc2CO)ccc1Br,10.1%
7,CCCC(=O)Nc1ccc(-c2nc3cc(C)c(C)cc3o2)cc1,14.7%
8,Cc1cc(C)cc(OCC(=O)Nc2ccc(C)cc2Br)c1,4.3%
9,CCc1ccc(C(C)NC(=O)c2ccccc2)cc1 (configuration not stated),5.1%
10,CCOc1ccc2oc(C)c(C(=O)OC(C)C)c2c1,12.2%
11,Cc1nccn1S(=O)(=O)c1ccc(Br)cc1,13.2%
12,Cc1ccc(CC2C(=O)N(c3ccc(I)cc3)C(=O)C2C)cc1 (configuration not stated),5%
13,O=C(COc1ccc(Cl)cc1Cl)N1CCN(c2ccccc2)CC1,-12.2%
14,Cc1cc(-c2ccc(C)o2)c(C#N)c(=S)[nH]1,17.7%
15,O=C(O)/C=C/c1ccc(-c2ccccc2Cl)o1,5.8%
16,Cc1ccnc(NC(=O)c2sc3ccccc3c2Cl)c1,8.5%
17,COc1ccc(CNC(=O)CN(c2ccccc2OC)S(=O)(=O)c2ccccc2)cc1,17%
18,Cc1ccc(C)c(S(=O)(=O)n2nnc3ccccc32)c1,4.5%
19,O=C(Cn1cc(/C=c2/sc3nc4ccccc4n3c2=O)c2ccccc21)Nc1ccccc1,41.9%
20,COc1cc(NC(C)=O)ccc1NC(=O)c1ccco1,10.5%
21,O=C1c2ccc([N+](=O)[O-])cc2C(=O)N1Cc1ccccc1,0.3%
22,COC(=O)c1ccccc1NC(=O)CN(c1ccc(Br)cc1)S(C)(=O)=O,5.9%
23,O=C(CSc1nc2ccccc2s1)OCC(=O)c1ccc(Cl)cc1,5%

row,Structure (SMILES),displacement
1,O=C1CCC(=O)N1CNc1ccc(Oc2ccccc2)cc1,3.3%
2,COC(=O)c1ccc(OCc2cc(C(=O)OC)oc2C)cc1,4.7%
3,Cc1cccc(N2C(=O)CSC23C(=O)Nc2ccccc23)c1 (configuration not stated),6.2%
4,CC(=O)Nc1ccc(S(=O)(=O)N/N=C/c2ccco2)cc1,11.4%
5,CCOC(=O)C1=C(O)/C(=C/c2cccc([N+](=O)[O-])c2)SC1=Nc1cccc2ccccc12,-8.7%
6,COc1cc(NC(=O)c2cc([N+](=O)[O-])ccc2N2CCCCCC2)c2ncccc2c1,15.6%
7,CC(=O)c1ccc2c3c(onc13)-c1ccccc1C2=O,2.4%
8,Cc1nc(=O)c(-c2ccccc2)c(C)n1-c1ccc(OCC(=O)O)cc1,0.5%
9,COc1ccc(-c2cc(O)c3c(C)oc(C)c3c(=O)c2)cc1OC,13.8%
10,CCOc1ccc(N(CC(=O)Nc2ccc(C)cc2)S(C)(=O)=O)cc1,-6.2%
11,Cc1cc(=O)n2[nH]c(C)c(-c3ccccc3)c2n1,0%
12,Cc1cccc(-n2c(C)cc(C=C(C#N)C#N)c2C)c1,1.5%
13,Cc1ccc(/C=C/C(=O)NCc2ccc(F)cc2)cc1,-3.1%
14,O=C(CC1S/C(=N\N=C\c2cccs2)NC1=O)Nc1ccc(Cl)c(Cl)c1 (configuration not stated),7.8%
15,C=CCOc1ccc(/C=C2\C(=O)NC(=O)N(c3ccc(Cl)cc3)C2=O)cc1OC,22.1%
16,CCN(CC)C(=O)CN(c1cccc(C(F)(F)F)c1)S(C)(=O)=O,3.3%
17,C=CCCCC(=O)Nc1ccc(Cl)cc1Cl,10.7%
18,Cc1ccc([N+](=O)[O-])cc1NC(=O)C(C)Oc1ccccc1 (configuration not stated),-1.7%
19,CSC1=C(C#N)C(c2ccncc2)C(C(=O)Nc2ccccc2)=C(C)N1 (configuration not stated),-2.9%
20,Cc1ccc(CN2CCN(CCNC(=O)C(=O)Nc3ccc(F)cc3)CC2)cc1,5.2%
21,CCOC(=O)C1=C(C)NC(=S)NC1c1cccc2ccccc12 (configuration not stated),-5%
22,Cc1ccc(S(=O)(=O)N(c2ccccc2)C2C=CS(=O)(=O)C2)cc1 (configuration not stated),-8.1%
23,COC(=O)c1ccccc1NC(=O)COc1ccc(C)c(C)c1,1.3%

row,Structure (SMILES),displacement
1,O=C(Nc1ccccc1-c1ccccc1)c1ccc(I)cc1,8.3%
2,Cc1nn(C(=O)c2ccc(F)cc2)c(C)c1Sc1ccccc1,0.6%
3,COc1cccc(C(=O)Nc2ccc(OC(F)(F)F)cc2)c1,10.2%
4,CCO/C(C)=C1\C(=O)N(CC)c2ccccc21,9%
5,Cc1cc(-c2ccc(NC(=O)c3cccs3)c(C)c2)ccc1NC(=O)c1cccs1,6.6%
6,CCc1cc2c(N/N=C\c3ccc([N+](=O)[O-])o3)ncnc2s1,-4.6%
7,CCCCOc1ccc(NC(=O)COc2cccc(C)c2C)cc1,1.2%
8,COc1cccc(NC(=O)C2C(C(=O)O)C3C=CC2C32CC2)c1 (configuration not stated),-7.1%
9,O=C(Nc1ccccc1)Nc1ccc(C(=O)N2CCOCC2)cc1,-59.6%
10,NNC(=O)Cc1ccc(C(F)(F)F)cc1[N+](=O)[O-],-6.5%
11,O=C(c1ccc(Br)o1)N1CCCCCC1,-3.9%
12,Cc1n[nH]c(C)c1CCC(=O)N/N=C/c1ccc(Cl)cc1Cl,-1.5%
13,O=C(/C=C\c1ccccc1)Nc1ccc(NC(=O)c2ccco2)cc1,9.7%
14,COc1ccc(N(CC(=O)NCCc2ccccc2)S(C)(=O)=O)cc1,3.5%
15,Cc1cc(OCC(=O)Nc2ccc(Br)cn2)cc(C)c1Cl,5.4%
16,CCOC(=O)c1c(NC(=O)c2cccs2)sc2c1CCC(C)C2 (configuration not stated),8.4%
17,COc1cccc(C(=O)Nc2ccc(-c3cnc(-c4ccc(NC(=O)c5cccc(OC)c5)cc4)nc3)cc2)c1,8.7%
18,Cc1ccc(S(=O)(=O)Nc2c(C)c(Cl)c(O)c(Cl)c2C)cc1,9.8%
19,CCC(=O)c1ccc(OCC(O)CN2CCCC2)c(OC)c1 (configuration not stated),-2.6%
20,Cc1cccc2c(Nc3ccc(S(N)(=O)=O)cc3)c3ccc([N+](=O)[O-])cc3nc12,-9.3%
